This is one part of the list. The full chains were built here from the parent and the listed change. Values near 0.05 are background.
B1: TEV protease; numbered along this chain (parent)
chain: MGESLFKGPRDYNPISSSICHLTNESDGHTTSLYGIGFGPFIITNKHLFRRNNGTLVVQSLHGVFKVKDTTTLQQHLVDGRDMIIIRMPKDFPPFPQKLKFREPQREERICLVTTNFQTKSMSSMVSDTSCTFPSGDGIFWKHWIQTKDGQCGSPLVSTRDGFIVGIHSASNFTNTNNYFTSVPKNFMELLTNQEAQQWVSGWRLNADSVLWGGHKVFMVKPEEPFQPVKEATQL

Variants of: B1
Assay: raw area under fraction-flipped curve 0-4 h after induction (AUC4h, not background-subtracted), DNA-recorder readout of cleavage of the substrate (dimensionless); higher = more cleavage of the substrate by the protease variant
Details: temperature: 34 °C; time window: 0-4 h after rhamnose induction
Experimental: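 In vivo DNA recorder in E. coli TOP10(DE3) ΔrhaA at 34 °C. Each TEVp single-site mutant (parent TEVp 0) is paired with a single-site variant of the 7-mer TEVs (canonical ENLYFQ|S). The substrate sits between flexible linkers in a Bxb1-sfGFP-TEVs-SsrA fusion, so cleavage stabilises Bxb1 and speeds flipping of a recombination array, read by NGS. The value is the raw area under the fraction-flipped curve over 0-4 h after rhamnose induction (AUC4h), with ≥20 reads per time point. It is not background-subtracted; inactive controls average about 0.047.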
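Note: Bxb1 expression induced with 0.2% (w/v) L-rhamnose at OD600 near 0.5, cultures sampled hourly, flipped fraction per protease–substrate barcode pair counted by paired-end Illumina sequencing.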

| Variant | area with substrate EALYFQS | area with substrate ECLYFQS | area with substrate EELYFQS | area with substrate EGLYFQS | area with substrate EILYFQS | area with substrate EKLYFQS | area with substrate ELLYFQS | area with substrate EMLYFQS | area with substrate ERLYFQS | area with substrate ESLYFQS | area with substrate EVLYFQS | area with substrate EHLYFQS | area with substrate ETLYFQS | area with substrate EYLYFQS | area with substrate EFLYFQS | area with substrate EPLYFQS | area with substrate EWLYFQS | area with substrate EQLYFQS | area with substrate EDLYFQS |
| --- | --- | --- | --- | --- | --- | --- | --- | --- | --- | --- | --- | --- | --- | --- | --- | --- | --- | --- | --- |
| N13H | 0.107 | 0.0954 | 0.122 | 0.0781 | 0.101 | 0.0766 | 0.11 | 0.116 | 0.0967 | 0.105 | 0.114 | – | – | – | – | – | – | – | – |
| N13M | 0.112 | 0.117 | 0.126 | 0.1 | 0.0762 | – | 0.118 | 0.129 | 0.119 | 0.105 | 0.105 | 0.109 | 0.14 | 0.102 | – | – | – | – | – |
| T30R | 0.117 | 0.122 | – | 0.103 | 0.0786 | 0.109 | 0.132 | – | – | 0.104 | 0.0963 | 0.108 | – | 0.121 | 0.0944 | 0.118 | 0.0862 | – | – |
| L33H | 0.0652 | 0.0677 | 0.085 | 0.0569 | 0.0503 | 0.053 | 0.0574 | 0.0776 | 0.0719 | 0.0642 | 0.0753 | 0.0653 | 0.0731 | 0.0974 | – | 0.0893 | – | 0.0724 | – |
| L33Y | 0.052 | 0.0565 | – | – | 0.0669 | 0.0563 | 0.0603 | 0.0475 | 0.0629 | 0.0621 | 0.0601 | 0.0617 | 0.062 | – | – | 0.0546 | – | 0.0704 | 0.0589 |
| L33R | 0.0582 | 0.042 | 0.0672 | – | 0.052 | – | 0.0508 | – | 0.0674 | 0.05 | 0.0584 | 0.0676 | 0.0638 | 0.0665 | 0.0588 | 0.0564 | 0.063 | 0.0293 | – |
| S18Q | 0.138 | 0.125 | – | 0.115 | 0.0463 | 0.0922 | 0.117 | 0.132 | – | – | 0.105 | – | 0.149 | 0.128 | 0.108 | – | – | 0.145 | – |
| H29P | 0.112 | 0.082 | 0.105 | 0.0662 | 0.0796 | 0.0869 | 0.0953 | 0.101 | – | 0.0868 | 0.0845 | 0.102 | 0.0812 | – | – | 0.101 | 0.0873 | 0.102 | – |
| H29T | 0.111 | 0.0887 | 0.145 | 0.0843 | 0.0789 | 0.116 | – | – | – | 0.127 | 0.111 | – | – | – | – | – | – | – | – |
| H29M | 0.102 | 0.107 | 0.136 | 0.101 | 0.102 | 0.0997 | 0.109 | 0.137 | 0.11 | 0.11 | 0.102 | 0.126 | 0.126 | – | 0.083 | 0.107 | 0.113 | 0.121 | – |
| H29I | 0.117 | – | – | 0.099 | – | 0.125 | 0.0703 | 0.109 | – | 0.105 | 0.138 | 0.0086 | 0.119 | 0.0973 | 0.104 | – | 0.0874 | – | 0.127 |
| C20L | 0.115 | – | 0.118 | 0.105 | 0.0835 | 0.0825 | – | 0.119 | 0.0894 | 0.0931 | 0.0752 | – | 0.0915 | 0.0876 | 0.0886 | 0.132 | 0.0991 | 0.0945 | 0.13 |
| C20W | 0.0386 | 0.0395 | 0.0529 | 0.0228 | 0.0548 | 0.0614 | 0.0406 | 0.0542 | 0.0504 | 0.0581 | – | 0.0484 | – | – | 0.0167 | 0.0371 | 0.0456 | 0.0486 | – |
| E3F | 0.127 | – | 0.175 | 0.108 | 0.123 | – | 0.0968 | – | 0.126 | 0.152 | 0.113 | 0.123 | 0.148 | – | – | 0.169 | 0.101 | 0.206 | – |
| E3R | 0.111 | 0.0903 | – | – | 0.0941 | 0.0837 | 0.0712 | – | 0.0888 | 0.0692 | – | 0.0822 | – | 0.0703 | 0.0839 | – | 0.0042 | 0.111 | – |
| E3C | 0.14 | – | – | 0.108 | 0.108 | 0.121 | – | 0.128 | 0.128 | 0.0988 | 0.162 | 0.109 | – | – | – | 0.166 | – | 0.131 | – |
| D11P | 0.0611 | – | – | 0.0577 | 0.0632 | 0.061 | – | – | 0.0641 | 0.0614 | 0.0665 | 0.0649 | 0.0904 | – | 0.0739 | 0.0684 | 0.0585 | 0.0603 | 0.0694 |
| D11F | 0.0929 | 0.0897 | – | 0.0945 | – | 0.0699 | – | 0.0952 | – | 0.11 | 0.0986 | 0.113 | – | 0.0714 | 0.11 | 0.112 | 0.085 | 0.11 | – |
| S26E | 0.0843 | – | – | 0.0806 | 0.0889 | 0.0811 | – | 0.0872 | 0.0814 | 0.0888 | 0.103 | – | 0.0934 | – | 0.123 | 0.0816 | – | 0.0971 | 0.121 |
| S26R | 0.0895 | – | 0.112 | 0.0644 | 0.0742 | – | 0.0628 | 0.0669 | 0.0894 | 0.0739 | 0.0743 | 0.0578 | 0.08 | – | 0.12 | – | – | 0.0914 | 0.0717 |
| S26Q | 0.102 | 0.0798 | 0.0928 | 0.0666 | 0.0615 | 0.0786 | – | 0.0899 | 0.0758 | 0.0815 | 0.0653 | 0.0784 | 0.0855 | 0.0886 | 0.0949 | – | – | 0.0737 | – |
| T31V | 0.152 | 0.122 | – | 0.101 | 0.105 | 0.0968 | 0.128 | 0.117 | 0.1 | 0.111 | 0.178 | – | – | 0.146 | – | 0.145 | – | 0.142 | 0.131 |
| H21V | 0.103 | 0.119 | 0.126 | 0.0746 | 0.0751 | 0.102 | 0.0739 | 0.0774 | 0.0739 | 0.101 | 0.0915 | 0.127 | 0.0999 | 0.127 | – | 0.112 | 0.081 | 0.114 | – |
| G28Q | 0.101 | – | 0.0939 | – | 0.0646 | 0.0787 | 0.0836 | – | 0.0954 | – | 0.0704 | 0.0892 | 0.0995 | 0.101 | 0.093 | – | – | 0.0988 | – |
| P9R | 0.15 | 0.135 | – | 0.102 | – | – | – | 0.175 | 0.156 | 0.165 | 0.116 | – | – | 0.147 | – | – | – | 0.125 | 0.168 |
| P9C | 0.0876 | – | 0.128 | 0.0997 | 0.0784 | – | – | 0.121 | – | 0.101 | – | – | – | – | 0.0911 | 0.105 | 0.12 | 0.122 | 0.121 |

Reference: the supplement of paper PMC12217912
